In all, about 33,000 sequences were measured (“E-score (-0.5 to 0.5)”: median about -0.011, highest 2% from about 0.28 on). The list shows a part of the results.
target: T1, Gcr1 (UniProt P07261); assay: PBM E-score (8-mer binding enrichment) (E-score (-0.5 to 0.5)); higher = stronger / more preferred TF binding; most listed sequences are background and not binding sites; conditions: protein concentration: 100 nM; construct: GST-full length
T1 sequence: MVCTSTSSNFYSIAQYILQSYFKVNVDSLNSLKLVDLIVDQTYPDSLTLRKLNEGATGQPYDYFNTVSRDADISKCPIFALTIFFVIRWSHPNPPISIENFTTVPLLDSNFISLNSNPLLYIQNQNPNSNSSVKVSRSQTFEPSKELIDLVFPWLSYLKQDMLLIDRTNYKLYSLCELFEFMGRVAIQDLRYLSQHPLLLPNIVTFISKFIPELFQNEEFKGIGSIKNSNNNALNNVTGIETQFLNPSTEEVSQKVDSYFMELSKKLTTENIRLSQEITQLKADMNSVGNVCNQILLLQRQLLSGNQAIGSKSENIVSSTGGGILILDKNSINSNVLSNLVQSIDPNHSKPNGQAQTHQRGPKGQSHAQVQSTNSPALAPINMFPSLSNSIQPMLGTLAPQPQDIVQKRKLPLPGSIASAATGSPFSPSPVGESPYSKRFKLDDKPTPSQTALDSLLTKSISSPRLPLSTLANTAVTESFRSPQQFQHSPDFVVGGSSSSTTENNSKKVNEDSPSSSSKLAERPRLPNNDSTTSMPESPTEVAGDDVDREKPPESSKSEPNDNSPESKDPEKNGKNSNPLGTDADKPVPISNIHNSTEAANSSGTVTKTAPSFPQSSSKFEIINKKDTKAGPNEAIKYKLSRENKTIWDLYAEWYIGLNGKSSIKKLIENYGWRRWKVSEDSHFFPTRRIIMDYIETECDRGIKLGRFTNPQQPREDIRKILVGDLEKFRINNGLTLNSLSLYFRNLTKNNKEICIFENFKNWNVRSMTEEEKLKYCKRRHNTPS
Outline: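 Each ungapped eight-base word and its reverse complement, pooled, received an E-score from the Universal PBM Analysis Suite. Underlying scans, normalised with masliner, recorded fluorescent anti-GST bound to GST-tagged yeast transcription factors. These were applied at about 100-200 nM to universal all-10-mer Agilent arrays double-stranded by primer extension.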

Sequence | PBM E-score
GACCTCTC | -0.0922
AACTACCG | -0.121
AATTTCGT | 0.203
AGATAAAA | 0.144
AACGCAGC | 0.0364
AAGGTAGT | 0.141
CGCTTGAG | -0.163
AAGCGACA | -0.0306
GACACATA | -0.104
AGGAACTC | 0.182
AGTAACGA | -0.143
ACTGTTCA | -0.163
CACTCACA | -0.183
AGGTCCAT | -0.0602
TCGCTAAA | -0.138
ATTATATA | -0.0551
AGGCCGCA | -0.0993
CCGACACA | -0.151
GCCGGTGA | 0.0355
AATCGCCG | 0.0873
CACCGTCC | -0.216
CGATATCA | -0.111
CCATCAAG | -0.153
ACCATCCA | -0.0435

Sequence | PBM E-score
CCCCATGA | 0.00788
AGAAAACG | -0.107
GGACTCCA | 0.345
CATACCTC | -0.0593
GGCAAACC | -0.157
AGCGTTCA | 0.0304
AGCTATGA | -0.162
AAATCTGA | 0.0984
CATCGGAC | -0.129
GCGGTGAA | -0.156
TAACCTCA | -0.148
CACGTATA | 0.0962
CCTGGGCA | -0.022
ATTAAGCG | 0.00694
ACGTCTAT | -0.0908
CGTCCGGA | -0.0678
ATGATTGG | 0.0187
GCTACGAA | -0.131
AAACAGCC | -0.118
ACTCATCC | -0.00995
ACTAAAGC | 0.00585
AAAGCGTA | -0.0323
GCACGATA | 0.0926
CACATTAA | -0.0572

Sequence | PBM E-score
TAGATCAA | 0.0916
CAATCTGG | -0.0284
AAAGTGAT | 0.0418
GACCCACC | -0.227
GATACCCA | -0.0925
AACGCTCC | -0.276
ATCAGGCA | -0.0639
ACCTCTCT | -0.107
AGCCTGAC | -0.349
GCATGTAA | 0.0856
ACATGGGT | 0.102
TCATAGGA | 0.155
CTGACCGC | -0.0762
AAGGATAG | -0.13
GGAACTCA | 0.00914
AGTAGCAC | 0.287
TCATGGAA | 0.037
ACAAGGGT | -0.0153
ACGCCTCG | -0.13
CTTAGCTA | -0.029
CTTCTCTC | -0.0493
ATCACCAG | 0.124
GGTAGTCA | -0.00589
ACTGAAAA | 0.17

Sequence | PBM E-score
CGCGGATA | 0.14
ACGAACGC | -0.14
ACGTTAGG | -0.0499
TAAAGAAA | 0.162
AGCTACGC | -0.0614
CTAGCCAC | -0.154
CCATGAAA | 0.156
GCGTTGTA | -0.00107
ACAGACCA | 0.0488
ATAGAACC | 0.102
ACTAGTAT | 0.213
CAGAGGAC | -0.0228
CCGGAGAC | -0.0141
ACGGATCT | -0.189
GTGGGCGA | -0.0253
GTATTCGA | 0.0462
CACACCAG | -0.0989
ACGACGCA | 0.138
AATCCCCA | 0.0469
CGGACTAA | -0.0788
AGTTTTGC | 0.011
TAGCTAAA | -0.126

Reference: the supplement of paper PMC3334620
